Over roughly 33,000 sequences, “E-score (-0.5 to 0.5)” has its median near -0.035; the highest 2% begin near 0.35. Some of the results follow.
Target: T1, Pdr3 (UniProt P33200)
T1 sequence: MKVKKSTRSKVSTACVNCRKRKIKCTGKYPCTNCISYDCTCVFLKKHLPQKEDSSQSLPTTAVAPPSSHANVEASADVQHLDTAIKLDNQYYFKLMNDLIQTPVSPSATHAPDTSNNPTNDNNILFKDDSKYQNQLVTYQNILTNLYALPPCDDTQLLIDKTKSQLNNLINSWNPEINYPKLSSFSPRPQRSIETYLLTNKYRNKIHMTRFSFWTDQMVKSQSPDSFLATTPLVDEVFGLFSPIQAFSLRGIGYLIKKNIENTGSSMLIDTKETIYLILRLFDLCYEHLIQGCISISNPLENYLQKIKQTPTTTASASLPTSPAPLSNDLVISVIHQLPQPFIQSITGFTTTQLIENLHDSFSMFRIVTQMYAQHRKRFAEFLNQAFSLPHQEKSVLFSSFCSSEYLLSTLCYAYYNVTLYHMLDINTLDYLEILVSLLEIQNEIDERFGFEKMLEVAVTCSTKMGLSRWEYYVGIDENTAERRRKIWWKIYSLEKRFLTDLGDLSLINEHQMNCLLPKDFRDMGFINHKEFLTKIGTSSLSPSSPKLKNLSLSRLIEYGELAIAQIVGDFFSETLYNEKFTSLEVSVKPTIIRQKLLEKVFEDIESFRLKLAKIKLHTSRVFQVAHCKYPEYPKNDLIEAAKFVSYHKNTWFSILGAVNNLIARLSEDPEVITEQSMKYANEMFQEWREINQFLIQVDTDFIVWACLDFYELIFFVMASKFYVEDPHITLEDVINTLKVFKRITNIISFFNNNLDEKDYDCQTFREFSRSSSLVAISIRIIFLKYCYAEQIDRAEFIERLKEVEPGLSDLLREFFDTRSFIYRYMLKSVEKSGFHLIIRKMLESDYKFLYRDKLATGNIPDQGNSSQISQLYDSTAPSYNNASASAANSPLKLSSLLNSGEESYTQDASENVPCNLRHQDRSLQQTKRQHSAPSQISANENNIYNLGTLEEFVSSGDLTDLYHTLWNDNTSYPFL
Experiment: PBM E-score (8-mer binding enrichment) (E-score (-0.5 to 0.5)); higher = stronger / more preferred TF binding; most listed sequences are background and not binding sites
Conditions: protein concentration: 200 nM; construct: GST-full length
Method in brief: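 Using PURExpress in vitro transcription/translation, GST-tagged yeast transcription factors were made in full-length or DNA-binding-domain form. These were applied at about 100-200 nM to double-stranded universal all-10-mer Agilent arrays, and bound protein was detected with fluorescent anti-GST. Scans were normalised with masliner before the Universal PBM Analysis Suite assigned E-scores to ungapped eight-base words pooled with their reverse complements.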

Row | Sequence | PBM E-score
1 | AAGATCGG | 0.238
2 | GCGGTAAC | 0.232
3 | AAAACGTG | -0.276
4 | GCCGCGCA | 0.188
5 | ACTCAGGA | -0.0325
6 | CCTATGGC | -0.0642
7 | AAACGGTC | 0.105
8 | AGAATGGG | -0.0867
9 | GGCCGAAA | 0.199
10 | CTCCTTGC | -0.152
11 | AACGAAGA | -0.0494
12 | CCCTTAGC | -0.0546
13 | CGTTAAAC | -0.0721
14 | CACTAAAA | 0.0916
15 | TATGATCA | -0.0608
16 | AGAGGTAA | -0.217
17 | GATCCGAA | 0.365
18 | ATGGAACA | -0.0996
19 | AGGGAAAC | -0.104
20 | GGCCGCAC | 0.2
21 | GATGTAAA | -0.118
22 | TCGTAACA | -0.0457
23 | AATCCCGT | 0.409
24 | GGAAAAGA | 0.112
25 | ATTACGGA | 0.361

Row | Sequence | PBM E-score
26 | AGGATCTA | -0.352
27 | CTCCGGAA | 0.441
28 | GACTACGC | -0.0705
29 | ACTATCCG | 0.316
30 | ATATTTGG | -0.129
31 | CGATGGAC | 0.129
32 | AATTCAAC | 0.204
33 | ATAACAAG | 0.174
34 | AAAGGTAA | -0.256
35 | CCTACAGG | -0.184
36 | TCTTTCCA | 0.0128
37 | CCAGCCCG | 0.176
38 | AATCGGCA | 0.191
39 | CAAAAGAG | -0.185
40 | GGCAGTGA | -0.135
41 | AAAAGTTA | -0.166
42 | ACTTTCGA | -0.0188
43 | GCGTACGC | -0.0541
44 | GGGCAGAC | -0.118
45 | CACCGGCC | 0.108
46 | CTCACTGA | -0.198
47 | TCTCCCCA | -0.0624
48 | ATGCCGGA | 0.405
49 | GGCCGGTA | 0.274
50 | TAAGGGTA | -0.262

Row | Sequence | PBM E-score
51 | CAATAACC | 0.142
52 | GAAACAGA | 0.0157
53 | TACCCACA | -0.153
54 | TAGATTGA | 0.115
55 | CCATATCG | 0.198
56 | ACTAAGCC | 0.101
57 | ACCCTTCA | -0.0225
58 | CCTTATAG | -0.225
59 | CACAGGTA | -0.0978
60 | CTACCTAC | 0.0968
61 | CTGCCGGC | 0.339
62 | GTGGAACA | 0.0611
63 | AACTACTT | -0.0276
64 | CAAGCGGG | 0.133
65 | GGGGTCAC | -0.0788
66 | AGAAATTA | 0.187
67 | AGAGGAGA | -0.199
68 | CAACGAAC | 0.0598
69 | AACCGAAT | 0.165
70 | ATCTGTCA | -0.0405
71 | CTCGATTC | 0.105
72 | GCAAGTAA | 5e-05
73 | ATGGCTTC | -0.216
74 | ACTGAGAC | -0.272
75 | ATTACGCC | -0.212

Row | Sequence | PBM E-score
76 | AAATATCC | 0.103
77 | ACGCCGAC | 0.163
78 | CGGGTGGA | 0.243
79 | TCGGTTAA | 0.223
80 | CTGCGAGC | 0.109
81 | CACCTTGG | 0.0296
82 | ACGTGGGC | -0.102
83 | GCAGGCTA | -0.23
84 | CTGCCGGA | 0.32
85 | ATTTCCGG | 0.456
86 | GTGTGGCA | -0.1
87 | ATCTTCAG | 0.0622
88 | AAATTGGT | 0.0397
89 | TGGTTACA | -0.197
90 | ATACCTTC | 0.00572
91 | ACCAGAAG | -0.172
92 | ACAGACTA | -0.193
93 | CAGGCCGC | 0.0618
94 | GTAAATTA | -0.22
95 | ACCTTCAG | -0.152
96 | ATTCCAAT | -0.0386
97 | AAGGCGCG | -0.122
98 | ATGCAATC | 0.0319
99 | ATGGACTA | -0.0711
100 | CGTATGAA | 0.133

Row | Sequence | PBM E-score
101 | CTTCTTTA | -0.164
102 | CACACGAA | -0.0306
103 | AAACCCGC | 0.258
104 | ATGCCGAG | 0.224
105 | CCGGCTCA | 0.294
106 | AATGACAT | 0.0556
107 | TAAAGTAA | -0.197
108 | ACCTCAAG | -0.0979
109 | CATTGAAC | 0.0265
110 | CTTGACCC | -0.017
111 | AGATCAGG | -0.169
112 | GTTCTATA | -0.0539
113 | CTTCATGC | 0.0311
114 | AGCGTCAC | -0.106
115 | ACCGCCAG | 0.1
116 | AAGTGACG | -0.0359
117 | GAAAGTAA | 0.0331
118 | ACATCGGT | -0.135
119 | AAGAGCAA | -0.123
120 | CCCATAGA | -0.247
121 | CGCTAAAA | 0.00276
122 | GTGCGCAC | 0.258
123 | CCTGATAG | -0.219
124 | ATCGGTCC | 0.263
125 | AGAGCTCG | 0.0679

Row | Sequence | PBM E-score
126 | GTCTCGGA | 0.306
127 | AGGCTTGC | -0.261
128 | CTTCAGGA | 0.0815
129 | AGTCAAAA | -0.104
130 | CCAGCATA | -0.219
131 | ACACTTCA | 0.0528
132 | ATGATTCC | 0.304
133 | GAGTCGAA | 0.186
134 | GGCGCGTA | -0.0855
135 | GATATTCC | 0.329
136 | CCCCCCTA | -0.344
137 | CGCATATA | -0.147
138 | TATGCACA | -0.16
139 | ACTTTACC | -0.0379
140 | TGGGATAA | -0.102
141 | TCCTAGGA | 0.0261
142 | CCTCGTCG | 0.108
143 | CAGGGGTC | -0.165
144 | TGGAGCCA | -0.343
145 | AGATAGGC | -0.16
146 | TACTAAGA | -0.0607
147 | AAGACTGG | -0.198
148 | CGACAGAG | -0.213
149 | CGAGTCCG | 0.309
150 | CTGGAAAA | 0.144

Row | Sequence | PBM E-score
151 | CTGCGGAC | 0.1
152 | CTAGTTAA | -0.182
153 | AACTCGGC | 0.24
154 | GGGTCCAC | -0.0965
155 | ACTGCAGA | -0.0799
156 | ACCACAGC | -0.0777
157 | TCGTGACA | 0.00277
158 | CCCCCGGG | 0.364
159 | GGAGCAGA | 0.0813
160 | AGAAGGTC | 0.0619
161 | GAGGTGGA | -0.00656
162 | GCCGAGGA | 0.313
163 | ACCGAAGG | -0.0364
164 | AGAAGTAT | 0.0303
165 | CGCGTAGA | -0.0879
166 | AGCACGGG | 0.131
167 | CATACCTA | -0.127
168 | CAATAGAG | -0.166
169 | ACGTGCCG | 0.226
170 | GCGGGCCC | 0.247
171 | CCCTCTTC | -0.151
172 | ATTCCCAA | -0.0687
